Data taken from the supplement of paper PMC11876631.
Changes are numbered by the printed parent chain. In names and notes the source's numbering stands. ± gives the standard deviation of the averaged measurements. Laboratory Escherichia coli strains with one amino-acid change in an essential protein, pooled on minimal glucose agar with carbenicillin or gentamicin at twice the control MIC (plus kanamycin and chloramphenicol for the plasmids), 48 h. Fold change of barcode share against drug-free plates; higher = less susceptible. Active = above 20 in both replicates (the paper's putatively resistant). '<' = one read or none on drug, '>' = one read or none on a drug-free plate. Shares are relative, so most strains fall below 1 when a few take over. Listed are strains with at least 15 reads on both drug-free plates, and hits; most hits rest on fewer reference reads. Replicate rank correlation about 0.5. Edits are read from barcodes.

B1: purH V396A (protein)
chain: MQQRRPVRRALLSVSDKAGIVEFAQALSARGVELLSTGGTARLLAEKGLPVTEVSDYTGFPEMMDGRVKTLHPKVHGGILGRRGQDDAIMEEHQIQPIDMVVVNLYPFAQTVAREGCSLEDAVENIDIGGPTMVRSAAKNHKDVAIVVKSSDYDAIIKEMDDNEGSLTLATRFDLAIKAFEHTAAYDSMIANYFGSMVPAYHGESKEAAGRFPRTLNLNFIKKLDMRYGENSHQQAAFYIEENVKEASVATATQVQGKALSYNNIADTDAALECVKEFAEPACVIVKHANPCGVAIGNSILDAYDRAYKTDPTSAFGGIIAFNRELDAETAQAIISRQFVEVIIAPSASEEALKITAAKQNVRVLTCGQWGERVPGLDFKRVNGGLLVQDRDLGMAGAEELRVVTKRQPSEQELRDALFCWKVAKFVKSNAIVYAKNNMTIGIGAGQMSRVYSAKIAGIKAADEGLEVKGSSMASDAFFPFRDGIDAAAAAGVTCVIQPGGSIRDDEVIAAADEHGIAMLFTDMRHFRH
B2: purH V396W (protein)
chain: B1 chain with A396W
B3: purH V396Q (protein)
chain: B1 chain with A396Q
B4: purH V396D (protein)
chain: B1 chain with A396D
B5: purH V396P (protein)
chain: B1 chain with A396P
B6: purK I213A (protein)
chain: MKQVCVLGNGQLGRMLRQAGEPLGIAVWPVGLDAEPAAVPFQQSVITAEIERWPETALTRELARHPAFVNRDVFPIIADRLTQKQLFDKLHLPTAPWQLLAERSEWPAVFDRLGELAIVKRRTGGYDGRGQWRLRANETEQLPAECYGECIVEQGINFSGEVSLVGARGFDGSTVFYPLTHNLHQDGILRTSVAFPQANAQQQAQAEEMLSAAMQELGYVGVMAMECFVTPQGLLINELAPRVHNSGHWTQNGASISQFELHLRAITDLPLPQPVVNNPSVMINLIGSDVNYDWLKLPLVHLHWYDKEVRPGRKVGHLNLTDSDTSRLTATLEALIPLLPPEYASGVIWAQSKFG
B7: purK I213W (protein)
chain: B6 chain with A213W
B8: purK I213Q (protein)
chain: B6 chain with A213Q
B9: purK I213P (protein)
chain: B6 chain with A213P
B10: purK V6A (protein)
chain: B6 chain with V6A, A213I
B11: purK L239A (protein)
chain: B6 chain with A213I, L239A

Target: Escherichia coli (laboratory strain)
Assay: barcode share on antibiotic plates over drug-free plates; higher = less susceptible
Experimental: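 A pool of E. coli strains, each edited to carry one amino-acid change in an essential protein, was grown for 48 h on minimal glucose agar with or without antibiotic; strain barcodes were sequenced; mean of two replicates.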

[1] = antibiotic: carbenicillin, 2× MIC (3.1 µg/mL)
[2] = antibiotic: gentamicin, 2× MIC (MIC 0.45 µg/mL)

Row | Protein | fold change of barcode share [1] | fold change of barcode share [2]
1 | B1 | 0.293 ± 0.0045 | 0.00665 ± 0.0056
2 | B2 | 0.274 ± 0.13 | < 0.00357
3 | B3 | 0.375 ± 0.19 | 0.00524 ± 0.0028
4 | B4 | 0.358 ± 0.22 | 0.0108 ± 0.0073
5 | B5 | 0.304 ± 0.15 | 0.00735 ± 0.0044
6 | B6 | 0.371 ± 0.23 | 0.00696 ± 0.0074
7 | B7 | 0.508 ± 0.072 | 0.0147 ± 0.0046
8 | B8 | 0.483 ± 0.035 | < 0.00206
9 | B9 | 0.945 ± 0.16 | 0.0244 ± 0.018
10 | B10 | 0.296 ± 0.013 | < 0.0199
11 | B11 | 0.228 ± 0.1 | 0.0102 ± 0.0082
